Reference: PubChem BioAssay (Tox21)
“And” between values parts separate entries of the source, which are not always exact repeats. Equal entries are not always repeated. Inconclusive results, whose numbers are uncertain, are shown with a selection of clear calls. Potencies of inconclusive entries are doubtful fits and often do not repeat. The source made the active and inactive calls. Calls follow the shape of the dose curve; as a rule, active = well fitted cell-killing curve with a large enough effect in the repeat runs; inconclusive = weak or mixed curves, or effect the other way; inactive = flat fitted curve, though single readings scatter.

Assay: cAMP Responsive Elements (CRE) small molecule antagonists, cell-based qHTS assay: qHTS cell viability counter screen (AID 2060913); also: nearly all actives have a fitted effect of over 40% in size
Details: CRE-bla HEK293T viability, CellTiter-Glo luminescence, 5 h; series mostly up to 92.4 µM; viability change, negative = cytotoxic: at the top concentration
Procedure, shortened: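 Steps: cells plated and held 18 hrs at 37 C/5% CO2; compounds and NKH477 (0.25 uM final) added; 3 hrs incubation; reporter substrate read; CellTiter-Glo added to measure cytotoxicity by luminescence.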
% is scaled to controls: 0 for no effect and ±100 for the full control effect; potency is read from the fitted curve at half-maximal effect; tags tell the direction and shape of the fitted curve.

| Structure (SMILES) | viability change, negative = cytotoxic | Potency |
| --- | --- | --- |
| O=C(O)c1ccc(Cl)cc1Cl | inactive: 12% | – |
| O=C1Nc2ccc(Cl)cc2[C@@](C#CC2CC2)(C(F)(F)F)O1 | – | inconclusive: 33.5 µM [cytotoxic, single point] |
| Oc1cc2ccccc2c2ccccc12 | – | active: 13.7 µM |
| CCC(=O)O[C@]1(C(=O)SCF)[C@H](C)C[C@H]2[C@@H]3C[C@H](F)C4=CC(=O)C=C[C@]4(C)[C@@]3(F)[C@@H](O)C[C@@]21C | inactive: -1.59% [at 42.5 µM] | – |
| CC(CC(C)(C)C)CC(C)(C)CC(C)(C)C (stereo unspecified) | – | inconclusive: 0.145 µM [cytotoxic, single point] |
| CC(C)(C)c1ccc(O)c(C(C)(C)C)c1 | – | inconclusive: 60.9 µM [cytotoxic, partial curve] and active: 48.6 µM |
| NC(CS)C(=O)O (stereo unspecified) | – | inconclusive: 29.8 µM [rising, partial curve, poor fit] |
| Cc1ccc(Br)cc1 | inactive: 4.8% | – |
| CC(CN)CCCN (stereo unspecified) | inactive: -15.5% | – |
| Cc1c(N(C)CS(=O)(=O)O)c(=O)n(-c2ccccc2)n1C | – | inactive |
| N[C@@H](Cc1c[nH]c2ccc(O)cc12)C(=O)O | – | inactive |
| CCCCCCCCCCCCCCCCN | – | inconclusive: 0.668 µM [cytotoxic, single point] |
| Nc1ccc(S(N)(=O)=O)cc1 | – | inconclusive: 1.28 µM [cytotoxic, single point] |
| CCCCCCCCCCC1CO1 (stereo unspecified) | inactive: 1.09% | – |
| O=C(Oc1ccccc1)c1ccc(O)cc1 | – | inactive |
| O=C(Nc1ccc(Oc2ccc(Cl)cc2)c(Cl)c1)c1cc(I)cc(I)c1O | – | inconclusive: 23.7 µM [cytotoxic, partial curve, poor fit] |
| Cc1nc2ccc(CN(C)c3ccc(C(=O)N[C@@H](CCC(=O)O)C(=O)O)s3)cc2c(=O)[nH]1 | – | inconclusive: 13.3 µM [rising, partial curve, poor fit] |
| Cc1cc2c(C(C)C)c(O)c(O)c(C=O)c2c(O)c1-c1c(C)cc2c(C(C)C)c(O)c(O)c(C=O)c2c1O | – | inconclusive: 33.5 µM [cytotoxic, single point] |

| Structure (SMILES) | viability change, negative = cytotoxic | Potency |
| --- | --- | --- |
| CCCCCCCCCCCCCCCCCC[N+](C)(C)C | – | active: 54.6 µM |
| O=c1cc(-c2ccccc2)oc2ccc3ccccc3c12 | – | inconclusive: 2.73 µM [cytotoxic, partial curve, poor fit] |
| Cc1cc(-c2ccc(N=Nc3cc(S(=O)(=O)O)c4ccccc4c3N)c(C)c2)ccc1N=Nc1cc(S(=O)(=O)O)c2ccccc2c1N | – | inconclusive: 2.74 µM [cytotoxic, full curve, poor fit] |
| CC(C)=CCNc1ncnc2c1ncn2[C@@H]1O[C@H](CO)[C@@H](O)[C@H]1O | – | inconclusive: 11.9 µM [cytotoxic, partial curve] |
| O=C(O)[C@H](O)[C@@H](O)[C@H](O)[C@H](O)CO | – | inconclusive: 1.31 µM [cytotoxic, partial curve, poor fit] |
| CCN(CC)c1ccc(C(=C2C=CC(=[N+](CC)CC)C=C2)c2ccc(S(=O)(=O)O)cc2S(=O)(=O)[O-])cc1 | – | active: 27.3 µM |
| CCC(O)C(C)(C)C (stereo unspecified) | inactive: -7.99% | – |
| c1ccc(C(O[C@@H]2CCCN(CCc3ccc4c(c3)OCO4)C2)c2ccccc2)cc1 | – | inconclusive: 68.6 µM [cytotoxic, partial curve, poor fit] |
| CS(=O)(=O)c1ccc(-c2cn3ccccc3n2)cc1 | – | active: 26.6 µM |
| CCCCCC#CC(=O)OC | – | inconclusive: 2.43 µM [cytotoxic, single point] |
| C=Cc1ccc(C(C)(C)C)cc1 | inactive: 2.04% | – |
| CC(=O)CC(=O)Nc1ccc2[nH]c(=O)[nH]c2c1 | inactive: 4.01% | – |
| CC(C)c1ccc2sc3ccccc3c(=O)c2c1 | – | inconclusive: 38.6 µM [cytotoxic, partial curve] |
| COCC(=O)O[C@]1(CCN(C)CCCc2nc3ccccc3[nH]2)CCc2cc(F)ccc2[C@@H]1C(C)C | – | inconclusive: 26.6 µM [cytotoxic, partial curve, poor fit] |
| CCN(Cc1ccncc1)C(=O)C(CO)c1ccccc1 (stereo unspecified) | inactive: 9.71% [at 42.5 µM] | – |
| CCN=C1C=CC(=C(c2ccc(N(CC)CC)cc2)c2ccc(N(CC)CC)cc2)c2ccccc21 | – | active: 48.3 µM |
| CC1=Nc2ccccc2C1(C)C | – | inconclusive: 0.612 µM [cytotoxic, single point] |
| Cc1cc([N+](=O)[O-])ccc1N | inactive: -5.37% | – |
